# Results as given in the supplement of paper PMC8728848.
# The other results are listed elsewhere or left out.
# Tests used:
# Test in all cases: glycan array binding signal (z-score within array); higher = stronger binding
# Settings in all cases: glycan notation: IUPAC condensed, linker removed
# Glc(a1-4)Glc = molecular target: Glc(a1-4)Glc
# Summary of the method: (§1)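 Negative Z-scores can be read as non-binding. The Z-score is calculated within each array and then averaged across arrays of one protein sequence at different concentrations or buffers and across linkers. Arrays, 3228 in all, were curated from the Consortium for Functional Glycomics database and kept only where the protein sequence was available.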
# [1] = molecular target: Glc(a1-4)Glc(a1-4)Glc(a1-4)Glc
# Summary of the method: as §1
# Glc(a1-6)Glc(a1-6)Glc = molecular target: Glc(a1-6)Glc(a1-6)Glc
# Summary of the method: as §1
# [2] = molecular target: Glc(a1-6)Glc(a1-6)Glc(a1-6)Glc
# Summary of the method: as §1
# Glc(b1-4)Glc = molecular target: Glc(b1-4)Glc
# Summary of the method: as §1
# Glc(b1-6)Glc = molecular target: Glc(b1-6)Glc
# Summary of the method: as §1
# GlcA(b1-3)Gal = molecular target: GlcA(b1-3)Gal
# Summary of the method: as §1
# GlcA(b1-3)GlcNAc = molecular target: GlcA(b1-3)GlcNAc
# Summary of the method: as §1
# GlcA(b1-6)Gal = molecular target: GlcA(b1-6)Gal
# Summary of the method: as §1
# [3] = molecular target: GlcA3S(b1-3)Gal(b1-4)GlcNAc(b1-2)Man
# Summary of the method: as §1
# [4] = molecular target: GlcA3S(b1-3)Gal(b1-4)GlcNAc(b1-3)Gal(b1-4)Glc
# Summary of the method: as §1
# [5] = molecular target: GlcNAc(a1-3)Gal(b1-4)GlcNAc
# Summary of the method: as §1
# [6] = molecular target: GlcNAc(a1-4)Gal(b1-3)GlcNAc
# Summary of the method: as §1
# [7] = molecular target: GlcNAc(a1-4)Gal(b1-4)GalNAc
# Summary of the method: as §1
# [8] = molecular target: GlcNAc(a1-4)Gal(b1-4)GlcNAc
# Summary of the method: as §1
# [9] = molecular target: GlcNAc(a1-4)Gal(b1-4)GlcNAc(b1-3)Gal(b1-4)Glc
# Summary of the method: as §1
# [10] = molecular target: GlcNAc(a1-4)Gal(b1-4)GlcNAc(b1-3)Gal(b1-4)GlcNAc
# Summary of the method: as §1
# [11] = molecular target: GlcNAc(a1-4)Gal(b1-4)GlcNAc(b1-3)Gal(b1-4)GlcNAc(b1-3)Gal(b1-4)GlcNAc
# Summary of the method: as §1
# [12] = molecular target: GlcNAc(a1-4)Gal(b1-4)GlcNAc(b1-3)Gal(b1-4)[Fuc(a1-3)]GlcNAc(b1-3)Gal(b1-4)[Fuc(a1-3)]GlcNAc
# Summary of the method: as §1
# [13] = molecular target: GlcNAc(a1-6)Gal(b1-4)GlcNAc
# Summary of the method: as §1
# [14] = molecular target: GlcNAc(b1-2)Gal(b1-3)GalNAc
# Summary of the method: as §1
# [15] = molecular target: GlcNAc(b1-2)Man(a1-3)[GlcNAc(b1-2)Man(a1-6)]Man(b1-4)GlcNAc(b1-4)GlcNAc
# Summary of the method: as §1
# [16] = molecular target: GlcNAc(b1-2)Man(a1-3)[GlcNAc(b1-2)Man(a1-6)]Man(b1-4)GlcNAc(b1-4)[Fuc(a1-6)]GlcNAc
# Summary of the method: as §1
# [17] = molecular target: GlcNAc(b1-2)Man(a1-3)[GlcNAc(b1-4)][GlcNAc(b1-2)Man(a1-6)]Man(b1-4)GlcNAc(b1-4)GlcNAc
# Summary of the method: as §1
# [18] = molecular target: GlcNAc(b1-2)Man(a1-3)[GlcNAc(b1-4)][GlcNAc(b1-2)Man(a1-6)]Man(b1-4)GlcNAc(b1-4)[Fuc(a1-6)]GlcNAc
# Summary of the method: as §1
# [19] = molecular target: GlcNAc(b1-2)[GlcNAc(b1-4)]Man(a1-3)[GlcNAc(b1-2)Man(a1-6)]Man(b1-4)GlcNAc(b1-4)GlcNAc
# Summary of the method: as §1
# [20] = molecular target: GlcNAc(b1-2)[GlcNAc(b1-4)]Man(a1-3)[GlcNAc(b1-4)][GlcNAc(b1-2)Man(a1-6)]Man(b1-4)GlcNAc(b1-4)GlcNAc
# Summary of the method: as §1
# [21] = molecular target: GlcNAc(b1-2)[GlcNAc(b1-4)]Man(a1-3)[GlcNAc(b1-4)][GlcNAc(b1-2)[GlcNAc(b1-6)]Man(a1-6)]Man(b1-4)GlcNAc(b1-4)GlcNAc
# Summary of the method: as §1
# [22] = molecular target: GlcNAc(b1-2)[GlcNAc(b1-4)]Man(a1-3)[GlcNAc(b1-4)][GlcNAc(b1-2)[GlcNAc(b1-6)]Man(a1-6)]Man(b1-4)GlcNAc(b1-4)[Fuc(a1-6)]GlcNAc
# Summary of the method: as §1
# [23] = molecular target: GlcNAc(b1-2)[GlcNAc(b1-6)]Man(a1-6)[GlcNAc(b1-2)Man(a1-3)]Man(b1-4)GlcNAc(b1-4)GlcNAc
# Summary of the method: as §1
# [24] = molecular target: GlcNAc(b1-2)[GlcNAc(b1-6)]Man(a1-6)[GlcNAc(b1-2)Man(a1-3)]Man(b1-4)GlcNAc(b1-4)[Fuc(a1-6)]GlcNAc
# Summary of the method: as §1
# [25] = molecular target: GlcNAc(b1-2)[GlcNAc(b1-6)]Man(a1-6)[GlcNAc(b1-2)Man(a1-3)][GlcNAc(b1-4)]Man(b1-4)GlcNAc(b1-4)GlcNAc
# Summary of the method: as §1
# [26] = molecular target: GlcNAc(b1-2)[GlcNAc(b1-6)]Man(a1-6)[GlcNAc(b1-4)][GlcNAc(b1-2)Man(a1-3)]Man(b1-4)GlcNAc(b1-4)GlcNAc
# Summary of the method: as §1
# GlcNAc(b1-3)Fuc = molecular target: GlcNAc(b1-3)Fuc
# Summary of the method: as §1
# GlcNAc(b1-3)Gal = molecular target: GlcNAc(b1-3)Gal
# Summary of the method: as §1
# [27] = molecular target: GlcNAc(b1-3)Gal(b1-3)GalNAc
# Summary of the method: as §1
# GlcNAc(b1-3)Gal(b1-4)Glc = molecular target: GlcNAc(b1-3)Gal(b1-4)Glc
# Summary of the method: as §1
# [28] = molecular target: GlcNAc(b1-3)Gal(b1-4)GlcNAc
# Summary of the method: as §1
# [29] = molecular target: GlcNAc(b1-3)Gal(b1-4)GlcNAc(b1-2)Man(a1-3)[GlcNAc(b1-3)Gal(b1-4)GlcNAc(b1-2)Man(a1-6)]Man(b1-4)GlcNAc(b1-4)GlcNAc
# Summary of the method: as §1
# [30] = molecular target: GlcNAc(b1-3)Gal(b1-4)GlcNAc(b1-2)Man(a1-3)[GlcNAc(b1-3)Gal(b1-4)GlcNAc(b1-2)Man(a1-6)]Man(b1-4)GlcNAc(b1-4)[Fuc(a1-6)]GlcNAc
# Summary of the method: as §1
# [31] = molecular target: GlcNAc(b1-3)Gal(b1-4)GlcNAc(b1-2)[GlcNAc(b1-3)Gal(b1-4)GlcNAc(b1-6)]Man(a1-6)[GlcNAc(b1-3)Gal(b1-4)GlcNAc(b1-2)Man(a1-3)]Man(b1-4)GlcNAc(b1-4)GlcNAc
# Summary of the method: as §1
# [32] = molecular target: GlcNAc(b1-3)Gal(b1-4)GlcNAc(b1-3)Gal(b1-4)GlcNAc
# Summary of the method: as §1
# [33] = molecular target: GlcNAc(b1-3)Gal(b1-4)GlcNAc(b1-3)Gal(b1-4)GlcNAc(b1-2)Man(a1-3)[GlcNAc(b1-3)Gal(b1-4)GlcNAc(b1-3)Gal(b1-4)GlcNAc(b1-2)Man(a1-6)]Man(b1-4)GlcNAc(b1-4)GlcNAc
# Summary of the method: as §1
# [34] = molecular target: GlcNAc(b1-3)Gal(b1-4)GlcNAc(b1-3)Gal(b1-4)GlcNAc(b1-2)Man(a1-3)[GlcNAc(b1-3)Gal(b1-4)GlcNAc(b1-3)Gal(b1-4)GlcNAc(b1-2)Man(a1-6)]Man(b1-4)GlcNAc(b1-4)[Fuc(a1-6)]GlcNAc
# Summary of the method: as §1
# [35] = molecular target: GlcNAc(b1-3)Gal(b1-4)GlcNAc(b1-3)Gal(b1-4)GlcNAc(b1-2)[GlcNAc(b1-3)Gal(b1-4)GlcNAc(b1-3)Gal(b1-4)GlcNAc(b1-6)]Man(a1-6)[GlcNAc(b1-3)Gal(b1-4)GlcNAc(b1-3)Gal(b1-4)GlcNAc(b1-2)Man(a1-3)]Man(b1-4)GlcNAc(b1-4)[Fuc(a1-6)]GlcNAc
# Summary of the method: as §1
binder,measurement,setting,value
OrysaEULS2 (Oryza sativa) (protein) MVYCRANPNYAMTARNGAVVLAPANPKDEYQHWIKDMRWSTSIKDEEGYPAFALVNKATGQAIKHSLGQSHPVRLVPYNPEVMDESVLWTESRDVGNGFRCIRMVNNIYLNFDAFHGDKYHGGVRDGTDIVLWKWCEGDNQRWKIQPYYILEQKLISEEDLNSAVDHHHHHH,glycan array binding signal (z-score),Glc(a1-4)Glc,-0.185
same,glycan array binding signal (z-score),[1],-0.171
same,glycan array binding signal (z-score),Glc(a1-6)Glc(a1-6)Glc,-0.159
same,glycan array binding signal (z-score),[2],-0.196
same,glycan array binding signal (z-score),Glc(b1-4)Glc,-0.182
same,glycan array binding signal (z-score),Glc(b1-6)Glc,-0.144
same,glycan array binding signal (z-score),GlcA(b1-3)Gal,-0.199
same,glycan array binding signal (z-score),GlcA(b1-3)GlcNAc,-0.191
same,glycan array binding signal (z-score),GlcA(b1-6)Gal,-0.194
same,glycan array binding signal (z-score),[3],-0.267
same,glycan array binding signal (z-score),[4],-0.246
same,glycan array binding signal (z-score),[5],-0.212
same,glycan array binding signal (z-score),[6],-0.199
same,glycan array binding signal (z-score),[7],-0.188
same,glycan array binding signal (z-score),[8],-0.201
same,glycan array binding signal (z-score),[9],-0.094
same,glycan array binding signal (z-score),[10],-0.192
same,glycan array binding signal (z-score),[11],-0.172
same,glycan array binding signal (z-score),[12],-0.118
same,glycan array binding signal (z-score),[13],-0.205
same,glycan array binding signal (z-score),[14],-0.206
same,glycan array binding signal (z-score),[15],3.13
same,glycan array binding signal (z-score),[16],0.299
same,glycan array binding signal (z-score),[17],-0.143
same,glycan array binding signal (z-score),[18],-0.219
same,glycan array binding signal (z-score),[19],-0.179
same,glycan array binding signal (z-score),[20],-0.178
same,glycan array binding signal (z-score),[21],-0.18
same,glycan array binding signal (z-score),[22],-0.197
same,glycan array binding signal (z-score),[23],1.24
same,glycan array binding signal (z-score),[24],0.532
same,glycan array binding signal (z-score),[25],-0.172
same,glycan array binding signal (z-score),[26],-0.086
same,glycan array binding signal (z-score),GlcNAc(b1-3)Fuc,-0.265
same,glycan array binding signal (z-score),GlcNAc(b1-3)Gal,-0.206
same,glycan array binding signal (z-score),[27],-0.209
same,glycan array binding signal (z-score),GlcNAc(b1-3)Gal(b1-4)Glc,-0.18
same,glycan array binding signal (z-score),[28],-0.186
same,glycan array binding signal (z-score),[29],0.768
same,glycan array binding signal (z-score),[30],0.035
same,glycan array binding signal (z-score),[31],0.674
same,glycan array binding signal (z-score),[32],-0.202
same,glycan array binding signal (z-score),[33],0.555
same,glycan array binding signal (z-score),[34],0.117
same,glycan array binding signal (z-score),[35],0.084
